Laboratory results reported in the supplement of paper PMC3334620.
Over roughly 33,000 sequences, “E-score (-0.5 to 0.5)” has its median near -0.041; the highest 2% begin near 0.37. Some of the results follow.

These sequences were tested against T1, Ecm22 (UniProt Q05958) (assay: PBM E-score (8-mer binding enrichment) (E-score (-0.5 to 0.5)); higher = stronger / more preferred TF binding; most listed sequences are background and not binding sites). Settings: protein concentration: 200 nM; construct: GST-full length.
T1 sequence: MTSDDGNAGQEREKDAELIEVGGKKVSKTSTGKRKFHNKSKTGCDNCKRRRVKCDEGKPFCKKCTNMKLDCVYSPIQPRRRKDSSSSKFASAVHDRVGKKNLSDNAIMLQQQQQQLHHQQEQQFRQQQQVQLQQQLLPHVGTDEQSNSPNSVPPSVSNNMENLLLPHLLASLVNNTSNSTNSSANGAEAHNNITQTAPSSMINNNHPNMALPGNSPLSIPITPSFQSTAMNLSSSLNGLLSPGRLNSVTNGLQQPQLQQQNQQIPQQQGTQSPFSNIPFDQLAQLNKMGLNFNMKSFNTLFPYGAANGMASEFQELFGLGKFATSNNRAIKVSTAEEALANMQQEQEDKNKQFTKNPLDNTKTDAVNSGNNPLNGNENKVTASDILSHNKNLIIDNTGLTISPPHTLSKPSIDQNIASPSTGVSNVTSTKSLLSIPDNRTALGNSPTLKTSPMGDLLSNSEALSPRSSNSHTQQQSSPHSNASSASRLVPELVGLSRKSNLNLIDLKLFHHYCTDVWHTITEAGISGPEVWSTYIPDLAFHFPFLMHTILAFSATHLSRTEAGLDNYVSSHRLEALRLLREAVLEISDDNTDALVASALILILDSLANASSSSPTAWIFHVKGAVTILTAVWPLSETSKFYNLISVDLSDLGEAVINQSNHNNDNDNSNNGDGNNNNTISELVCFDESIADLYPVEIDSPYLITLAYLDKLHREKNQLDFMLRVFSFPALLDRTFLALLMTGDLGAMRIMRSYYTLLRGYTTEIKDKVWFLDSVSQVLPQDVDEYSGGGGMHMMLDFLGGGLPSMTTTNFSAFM
Procedure, shortened: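 Full-length yeast transcription factors or their DNA-binding domains, GST-tagged and expressed with PURExpress, were applied at about 100-200 nM to universal all-10-mer Agilent arrays. These arrays had been made double-stranded by primer extension on fresh or once-stripped slides. Detection used fluorescent anti-GST, normalisation used masliner, and E-scores for ungapped eight-base words pooled with reverse complements came from the Universal PBM Analysis Suite.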

| Sequence | PBM E-score |
| --- | --- |
| AAAATCGG | -0.0872 |
| GACGATGA | -0.0197 |
| CCGCGTTC | 0.181 |
| CGCGATGC | 0.193 |
| CTTCTCCA | -0.225 |
| AGTTCCCA | 0.0586 |
| AGGGTCCG | 0.0934 |
| ACAGGTGA | -0.231 |
| CATATCGG | -0.151 |
| TGTGTCAA | -0.0896 |
| CAGGACGC | -0.072 |
| CAAATATA | -0.0522 |
| ACTTCTCG | 0.256 |
| AACTCGTC | 0.102 |
| GGATTCGA | -0.188 |
| AAGTTGAG | 0.0476 |
| AAGACTGT | -0.0946 |
| ACGAAACC | 0.33 |
| CAGGTCGA | -0.145 |
| GCACCGAA | 0.148 |
| AATTCGAG | 0.0674 |
| CCATTTAA | -0.113 |
| AGAAAAAA | -0.118 |
| ATCCTTGG | -0.152 |
| CACTCAGC | -0.203 |

| Sequence | PBM E-score |
| --- | --- |
| CAGGGTTC | -0.0501 |
| CATTGGGG | -0.281 |
| AAAGCGAA | 0.133 |
| ATCCATTC | 0.192 |
| AGTCTAGG | -0.141 |
| AGGGGCAA | -0.111 |
| AGTGTTGA | -0.109 |
| AAGTGATG | -0.116 |
| TATTTAAA | 0.132 |
| GTAAGACA | 0.0839 |
| AATTGCAC | -0.0277 |
| AGTTCCAA | -0.0699 |
| GGTATTAC | 0.122 |
| GGGACCGA | 0.269 |
| CGTACTGC | 0.291 |
| AATACCCA | -0.0503 |
| AAACAAGG | -0.244 |
| AGCGGTGA | -0.0725 |
| AGTAATAA | 0.00504 |
| ACTAAGAG | -0.0045 |
| AGGCCGTA | 0.384 |
| CGCATGCA | 0.0885 |
| AGAAAGAC | -0.0342 |
| GAAATGCC | -0.0167 |
| GATTTCGA | 0.00622 |

| Sequence | PBM E-score |
| --- | --- |
| CAGAACAG | -0.127 |
| CCCGGGAG | -0.331 |
| CAGTACAC | -0.00959 |
| CTACATCC | -0.171 |
| CATAAGTC | -0.0161 |
| AATAGTGC | -0.00076 |
| GGACGTCC | -0.103 |
| CCCCAACC | -0.176 |
| GACGTGCC | -0.161 |
| TCCCTGCA | -0.111 |
| ATGGCCTA | -0.0123 |
| AGGGGGTC | -0.228 |
| GTTGAGAA | -0.24 |
| ATTAACGG | 0.226 |
| GTGTCAGA | -0.0914 |
| ACTGCTCT | -0.148 |
| GTACTGCA | 0.0571 |
| GACCAATC | -0.144 |
| AAGAGGAT | -0.177 |
| ACAAGATC | -0.0608 |
| CTATGCAG | -0.0753 |
| AAAATTGT | -0.0489 |
| AGGAACAC | -0.0177 |
| AGTCATTC | -0.116 |
| ATGCGACG | 0.294 |

| Sequence | PBM E-score |
| --- | --- |
| CTTACGAA | 0.391 |
| TACTGGCA | -0.17 |
| GAGGGCAA | -0.0698 |
| TACTCGGA | 0.212 |
| CACCTAGA | -0.055 |
| AACCTACA | -0.0586 |
| CGATGGAA | 0.0222 |
| AACACTGG | -0.0431 |
| ACTCTTCC | -0.15 |
| ATTCATCA | -0.0422 |
| ACAGCCAG | -0.019 |
| GAGTAGAA | 0.0393 |
| GAAGACCA | -0.0642 |
| ATAAGAGC | 0.111 |
| CGGAAGGC | -0.306 |
| ACGCGGCC | -0.0158 |
| AGGTAGTA | -0.0441 |
| CAGCCCGA | -0.153 |
| ACGCAGCG | 0.0255 |
| GTATGTCA | 0.0795 |
| GAGCAGCC | -0.0218 |
| GCGCACCA | 0.0385 |
| CCTGCTAA | -0.0845 |
| AGCCGTAA | 0.153 |
| TCTAAACA | 0.00509 |

| Sequence | PBM E-score |
| --- | --- |
| ATAAAGTG | 0.052 |
| CCTAGGAA | -0.188 |
| GATGTCTA | 0.0976 |
| CTGAAGCC | -0.103 |
| AATGGAAT | -0.205 |
| CCTTTACG | 0.329 |
| CTGACTCA | -0.265 |
| CAGTACGC | 0.06 |
| ACTAGATA | 0.114 |
| CAATGTGG | -0.15 |
| ATAGTTTC | -0.0352 |
| GGCGAGAC | -0.0399 |
| ATTTTGTC | -0.0711 |
| AAGTTATT | 0.0823 |
| CAGTCGAA | -0.0374 |
| GATCTGAA | -0.12 |
| GGCCATCA | -0.203 |
| ACCTTCAT | -0.11 |
| ACGCTAAA | 0.0551 |
| AATACTCC | -0.103 |
| CAGTGCCC | -0.043 |
| GAACTAAC | 0.0769 |
| CGTCGGGC | -0.107 |
| CTTATCCC | -0.0938 |
| CCTTTCCA | -0.141 |

| Sequence | PBM E-score |
| --- | --- |
| CGATAACC | 0.219 |
| GCCTCTAA | -0.156 |
| GGTCAGAC | -0.348 |
| ATCCATCA | -0.0518 |
| GACCTTTA | 0.074 |
| GCACGGGA | 0.0895 |
| CTGCCCGC | -0.1 |
| CGGTTATA | 0.285 |
| GAAGCGTA | 0.214 |
| ACTGAGGC | -0.15 |
| AACTGGAT | -0.0918 |
| AATCTATC | -0.129 |
| ATGCAAGA | -0.229 |
| ACCAGGCG | -0.16 |
| GAAGTCTA | -0.162 |
| AGGATAAT | 0.0945 |
| AGCATCGA | -0.0129 |
| AACATCTT | -0.0882 |
| TGTGCGAA | 0.127 |
| CCATTAAG | -0.0901 |
| AAAACATT | -0.0377 |
| GCAATGAC | -0.141 |
| CGGTAGTC | -0.0257 |
| TCCCACAA | -0.17 |
| TAATAAGA | -0.0203 |

| Sequence | PBM E-score |
| --- | --- |
| CTTATTCA | -0.134 |
| ATTAAAAT | -0.133 |
| ATCCCTGG | -0.246 |
| CGGGACTC | -0.0155 |
| AGAAATAT | 0.112 |
| CGGAGTAA | 0.0339 |
| GACGTGGC | -0.228 |
| CGTCGAGA | 0.167 |
| AATAACTA | 0.0409 |
| AAACACGC | 0.00946 |
| GACCTCTA | -0.0204 |
| CAAGTAGG | -0.203 |
| GACGATCA | -0.0466 |
| GTCATAAA | -0.00245 |
| ACGTCGCG | 0.162 |
| GCTTTGGA | 0.0385 |
| AACATCGC | -0.171 |
| AATTGGAT | -0.154 |
| CAACTCCA | -0.306 |
| GATCAACA | -0.0756 |
| CGTGAGAC | -0.0669 |
| CACGAGCA | 0.0712 |
